A collection of fitness landscapes (doi:10.1016/j.celrep.2020.107928)
Over roughly 81,000 sequences, “one-hybrid fitness for binding parS DNA” has its median near -0.17; the highest 2% begin near 0.51. Some of the results follow.

B1: Caulobacter ParB omega fusion; a variant is named by its letters at X, in order, B8GW30 (parent)
chain: MESVVVGEPGMSEGRRGLGRGLSALLGEVDAAPAQAPGEQLGGSREAPIEILQRNPDQPRRTFREEDLEDLSNSIREKGVLQPILVRPSPDTAGEYQIVAGERAWRAAQRAGLKTVPIMVRELDDLAVLEIGIIENVQRADLNVLEEALSYKVLMEKFERTQENIAQTIGKSXSHVANXMRLLXLPDEVQSYLVSGELTAXHARAIAAAADPVALAKQIIEGGLSVRETEALARKAPNLSAGKSKGGRPPRVKDTDTQALESDLSSVLGLDVSIDHRGSTGTLTITYATLEQLDDLCNRLTRGI

Variants of: B1
Experiment: one-hybrid fitness for binding parS DNA (scaled: cognate 1, non-cognate 0); higher = stronger binding
Settings: with parS DNA site
Method in brief: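 Fitness here means the log change in variant-to-wild-type read ratio between plasmids sequenced before and after selection. That scale was set so cognate equals 1 and non-cognate equals 0. The selection was a bacterial one-hybrid screen of Caulobacter ParB libraries, four specificity codons randomised, in E. coli USO carrying a HIS3 reporter with the site 19 bp from the promoter, grown 48 hours at 37°C on M9-minus-histidine with 0.1 mM IPTG and 5 mM 3-AT.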

NSFI and SQDT cannot be ordered by “one-hybrid fitness for binding parS DNA” value: ≤ 0.2 for the first, ≤ 0.2 for the second.

CLTV and QITN cannot be ordered by “one-hybrid fitness for binding parS DNA” value: ≤ 0.2 for the first, ≤ 0.2 for the second.

SRLA and YCES cannot be ordered by “one-hybrid fitness for binding parS DNA” value: ≤ 0.2 for the first, ≤ 0.2 for the second.

VRNP and TRNY cannot be ordered by “one-hybrid fitness for binding parS DNA” value: ≤ 0.2 for the first, ≤ 0.2 for the second.

PFYG and QAEE cannot be ordered by “one-hybrid fitness for binding parS DNA” value: ≤ 0.2 for the first, ≤ 0.2 for the second.

Compared with RLRA, SMAV is lower in “one-hybrid fitness for binding parS DNA” value: 0.727 for the first, ≤ 0.2 for the second.

HRVT and RNFW cannot be ordered by “one-hybrid fitness for binding parS DNA” value: ≤ 0.2 for the first, ≤ 0.2 for the second.

ILYL and INSY cannot be ordered by “one-hybrid fitness for binding parS DNA” value: ≤ 0.2 for the first, ≤ 0.2 for the second.

Compared with RAWC, NKLT is lower in “one-hybrid fitness for binding parS DNA” value: 0.927 for the first, ≤ 0.2 for the second.

ARCS and YPEC cannot be ordered by “one-hybrid fitness for binding parS DNA” value: ≤ 0.2 for the first, ≤ 0.2 for the second.

SSLC and LMFM cannot be ordered by “one-hybrid fitness for binding parS DNA” value: ≤ 0.2 for the first, ≤ 0.2 for the second.

HHTE and PNQV cannot be ordered by “one-hybrid fitness for binding parS DNA” value: ≤ 0.2 for the first, ≤ 0.2 for the second.

First: RWWT
Second: PFLS
The “one-hybrid fitness for binding parS DNA” value of the first is higher: 0.507 for the first, ≤ 0.2 for the second.

KQDT and FRWT cannot be ordered by “one-hybrid fitness for binding parS DNA” value: ≤ 0.2 for the first, ≤ 0.2 for the second.

SFKY and GLWW cannot be ordered by “one-hybrid fitness for binding parS DNA” value: ≤ 0.2 for the first, ≤ 0.2 for the second.

EIAR and TADI cannot be ordered by “one-hybrid fitness for binding parS DNA” value: ≤ 0.2 for the first, ≤ 0.2 for the second.

NWHT and NKSN cannot be ordered by “one-hybrid fitness for binding parS DNA” value: ≤ 0.2 for the first, ≤ 0.2 for the second.

SAAS and CPPL cannot be ordered by “one-hybrid fitness for binding parS DNA” value: ≤ 0.2 for the first, ≤ 0.2 for the second.

PFKG and SVQN cannot be ordered by “one-hybrid fitness for binding parS DNA” value: ≤ 0.2 for the first, ≤ 0.2 for the second.

GMTV and TWCG cannot be ordered by “one-hybrid fitness for binding parS DNA” value: ≤ 0.2 for the first, ≤ 0.2 for the second.

DPDF and LQYY cannot be ordered by “one-hybrid fitness for binding parS DNA” value: ≤ 0.2 for the first, ≤ 0.2 for the second.

EATM and ELMT cannot be ordered by “one-hybrid fitness for binding parS DNA” value: ≤ 0.2 for the first, ≤ 0.2 for the second.

IVDG and VGTR cannot be ordered by “one-hybrid fitness for binding parS DNA” value: ≤ 0.2 for the first, ≤ 0.2 for the second.

NIPS and SQRF cannot be ordered by “one-hybrid fitness for binding parS DNA” value: ≤ 0.2 for the first, ≤ 0.2 for the second.

MAMM and AVLD cannot be ordered by “one-hybrid fitness for binding parS DNA” value: ≤ 0.2 for the first, ≤ 0.2 for the second.

PMFS and LPTN cannot be ordered by “one-hybrid fitness for binding parS DNA” value: ≤ 0.2 for the first, ≤ 0.2 for the second.

LMVV and VNRY cannot be ordered by “one-hybrid fitness for binding parS DNA” value: ≤ 0.2 for the first, ≤ 0.2 for the second.

VYQS and KTKI cannot be ordered by “one-hybrid fitness for binding parS DNA” value: ≤ 0.2 for the first, ≤ 0.2 for the second.

GFNN and PHFM cannot be ordered by “one-hybrid fitness for binding parS DNA” value: ≤ 0.2 for the first, ≤ 0.2 for the second.

QRQL and FRCV cannot be ordered by “one-hybrid fitness for binding parS DNA” value: ≤ 0.2 for the first, ≤ 0.2 for the second.

MMKT and CASA cannot be ordered by “one-hybrid fitness for binding parS DNA” value: ≤ 0.2 for the first, ≤ 0.2 for the second.

VWGR and HSMT cannot be ordered by “one-hybrid fitness for binding parS DNA” value: ≤ 0.2 for the first, ≤ 0.2 for the second.

ERKM and GIMS cannot be ordered by “one-hybrid fitness for binding parS DNA” value: ≤ 0.2 for the first, ≤ 0.2 for the second.

FNGT and TNQT cannot be ordered by “one-hybrid fitness for binding parS DNA” value: ≤ 0.2 for the first, ≤ 0.2 for the second.

QDLC and YSGA cannot be ordered by “one-hybrid fitness for binding parS DNA” value: ≤ 0.2 for the first, ≤ 0.2 for the second.

INPV and FHTT cannot be ordered by “one-hybrid fitness for binding parS DNA” value: ≤ 0.2 for the first, ≤ 0.2 for the second.

CQVS and RNWV cannot be ordered by “one-hybrid fitness for binding parS DNA” value: ≤ 0.2 for the first, ≤ 0.2 for the second.

GHLT and QDLN cannot be ordered by “one-hybrid fitness for binding parS DNA” value: ≤ 0.2 for the first, ≤ 0.2 for the second.

FFRT and IRNA cannot be ordered by “one-hybrid fitness for binding parS DNA” value: ≤ 0.2 for the first, ≤ 0.2 for the second.

GGEF and YKNL cannot be ordered by “one-hybrid fitness for binding parS DNA” value: ≤ 0.2 for the first, ≤ 0.2 for the second.

KAWP and DQHT cannot be ordered by “one-hybrid fitness for binding parS DNA” value: ≤ 0.2 for the first, ≤ 0.2 for the second.

PLGA and RGAK cannot be ordered by “one-hybrid fitness for binding parS DNA” value: ≤ 0.2 for the first, ≤ 0.2 for the second.

ARGM and YCSL cannot be ordered by “one-hybrid fitness for binding parS DNA” value: ≤ 0.2 for the first, ≤ 0.2 for the second.

PEPW and AKLM cannot be ordered by “one-hybrid fitness for binding parS DNA” value: ≤ 0.2 for the first, ≤ 0.2 for the second.

HYMI and QQTS cannot be ordered by “one-hybrid fitness for binding parS DNA” value: ≤ 0.2 for the first, ≤ 0.2 for the second.

QSNF and VVGL cannot be ordered by “one-hybrid fitness for binding parS DNA” value: ≤ 0.2 for the first, ≤ 0.2 for the second.

QGKG and QRKE cannot be ordered by “one-hybrid fitness for binding parS DNA” value: ≤ 0.2 for the first, ≤ 0.2 for the second.

SSTQ and YPEG cannot be ordered by “one-hybrid fitness for binding parS DNA” value: ≤ 0.2 for the first, ≤ 0.2 for the second.

QQVQ and QPDA cannot be ordered by “one-hybrid fitness for binding parS DNA” value: ≤ 0.2 for the first, ≤ 0.2 for the second.

Compared with GVGC, RMYS is higher in “one-hybrid fitness for binding parS DNA” value: ≤ 0.2 for the first, 1.01 for the second.

VFRW and PLMW cannot be ordered by “one-hybrid fitness for binding parS DNA” value: ≤ 0.2 for the first, ≤ 0.2 for the second.

RIHL and QYSN cannot be ordered by “one-hybrid fitness for binding parS DNA” value: ≤ 0.2 for the first, ≤ 0.2 for the second.

NRFF and KMPC cannot be ordered by “one-hybrid fitness for binding parS DNA” value: ≤ 0.2 for the first, ≤ 0.2 for the second.

QAWC and QGPS cannot be ordered by “one-hybrid fitness for binding parS DNA” value: ≤ 0.2 for the first, ≤ 0.2 for the second.

MHTC and YQDY cannot be ordered by “one-hybrid fitness for binding parS DNA” value: ≤ 0.2 for the first, ≤ 0.2 for the second.

CHRH and AKNI cannot be ordered by “one-hybrid fitness for binding parS DNA” value: ≤ 0.2 for the first, ≤ 0.2 for the second.

QRTR and WIFG cannot be ordered by “one-hybrid fitness for binding parS DNA” value: ≤ 0.2 for the first, ≤ 0.2 for the second.

First: RTCC
Second: RMWL
The “one-hybrid fitness for binding parS DNA” value of the first is higher: 0.959 for the first, ≤ 0.2 for the second.

HENT and QANA cannot be ordered by “one-hybrid fitness for binding parS DNA” value: ≤ 0.2 for the first, ≤ 0.2 for the second.

IYPS and ESYI cannot be ordered by “one-hybrid fitness for binding parS DNA” value: ≤ 0.2 for the first, ≤ 0.2 for the second.

QLLG and AVAV cannot be ordered by “one-hybrid fitness for binding parS DNA” value: ≤ 0.2 for the first, ≤ 0.2 for the second.

TTVM and DEAS cannot be ordered by “one-hybrid fitness for binding parS DNA” value: ≤ 0.2 for the first, ≤ 0.2 for the second.

QKCV and GFNF cannot be ordered by “one-hybrid fitness for binding parS DNA” value: ≤ 0.2 for the first, ≤ 0.2 for the second.

PNMM and INLL cannot be ordered by “one-hybrid fitness for binding parS DNA” value: ≤ 0.2 for the first, ≤ 0.2 for the second.

HYER and TVMQ cannot be ordered by “one-hybrid fitness for binding parS DNA” value: ≤ 0.2 for the first, ≤ 0.2 for the second.

CSLN and RFID cannot be ordered by “one-hybrid fitness for binding parS DNA” value: ≤ 0.2 for the first, ≤ 0.2 for the second.

SVYR and DEAY cannot be ordered by “one-hybrid fitness for binding parS DNA” value: ≤ 0.2 for the first, ≤ 0.2 for the second.

PYVC and ICIR cannot be ordered by “one-hybrid fitness for binding parS DNA” value: ≤ 0.2 for the first, ≤ 0.2 for the second.

IEES and YVVG cannot be ordered by “one-hybrid fitness for binding parS DNA” value: ≤ 0.2 for the first, ≤ 0.2 for the second.

First: PNPW
Second: QDWW
The “one-hybrid fitness for binding parS DNA” value of the first is lower: ≤ 0.2 for the first, 0.287 for the second.

PLWA and FRTQ cannot be ordered by “one-hybrid fitness for binding parS DNA” value: ≤ 0.2 for the first, ≤ 0.2 for the second.

ACYY and QKIR cannot be ordered by “one-hybrid fitness for binding parS DNA” value: ≤ 0.2 for the first, ≤ 0.2 for the second.

First: SEHQ
Second: RNSR
The “one-hybrid fitness for binding parS DNA” value of the first is higher: 0.354 for the first, ≤ 0.2 for the second.

SSHG and DMNS cannot be ordered by “one-hybrid fitness for binding parS DNA” value: ≤ 0.2 for the first, ≤ 0.2 for the second.

Compared with DRFV, RRHG is higher in “one-hybrid fitness for binding parS DNA” value: ≤ 0.2 for the first, 0.72 for the second.

YMRC and HAAI cannot be ordered by “one-hybrid fitness for binding parS DNA” value: ≤ 0.2 for the first, ≤ 0.2 for the second.

With QVPS the “one-hybrid fitness for binding parS DNA” value was ≤ 0.2.
